Experimental data: the supplement of paper PMC4604168 (melanoma cell lines)
The other results are listed elsewhere or left out. Most values come without repeats; read them as rough.

Test system: 501Mel
Assay: cell count relative to DMSO control; melanoma cells; higher = more viable cells
Conditions: library dose: low library concentration; 72 h
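Also: cell number obtained by counting DAPI-stained nuclei in high-throughput microscope images with image analysis software, screen run in 1,536-well plates.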

Row | Compound | cell count
1 | C=CCNC1=C2C[C@@H](C)C[C@H](OC)[C@H](O)[C@@H](C)/C=C(\C)[C@H](OC(N)=O)[C@@H](OC)/C=C\C=C(/C)C(=O)NC(=CC1=O)C2=O [Tanespimycin] + Cn1cc(/C=C2\C(=O)Nc3cccnc32)c2ccccc21 [GW441756] (first compound 0.002 µM, partner dose 0.4 µM) | 84.6%
2 | CNC(=O)c1cc(Oc2ccc(NC(=O)Nc3ccc(Cl)c(C(F)(F)F)c3)cc2)ccn1 [sorafenib] + c1cc(-c2cnn3cc(-c4ccc(OCCN5CCCCC5)cc4)cnc23)ccn1 [Dorsomorphin] (first compound 0.4 µM, partner dose 0.4 µM) | 73.3%
3 | C[C@@H](Oc1cc(-c2cnn(C3CCNCC3)c2)cnc1N)c1c(Cl)ccc(F)c1Cl [Crizotinib] + COc1cc(N2CCC(N3CCN(C)CC3)CC2)ccc1Nc1ncc(Cl)c(Nc2ccccc2S(=O)(=O)C(C)C)n1 [NVP-TAE684] (first compound 0.2 µM, partner dose 0.08 µM) | 95.2%
4 | CNC(=O)c1cc(Oc2ccc(NC(=O)Nc3ccc(Cl)c(C(F)(F)F)c3)cc2)ccn1 [sorafenib] + CCCCCCCCCCCC1=C(O)C(=O)C=C(O)C1=O [Embelin] (first compound 0.4 µM, partner dose 1.2 µM) | 101%
5 | CS(=O)(=O)CCNCc1ccc(-c2ccc3ncnc(Nc4ccc(OCc5cccc(F)c5)c(Cl)c4)c3c2)o1 [lapatinib] + O=C(Nc1ccccc1)c1cc([N+](=O)[O-])ccc1Cl [GW9662] (first compound 0.8 µM, partner dose 2 µM) | 84.2%
6 | CS(=O)(=O)CCNCc1ccc(-c2ccc3ncnc(Nc4ccc(OCc5cccc(F)c5)c(Cl)c4)c3c2)o1 [lapatinib] + COc1ccc2c(c1)CCC1C2CCC2(C)C(NCCCCCCN3C(=O)C=CC3=O)CCC12 [U73122] (first compound 0.8 µM, partner dose 0.4 µM) | 78.5%
7 | CNC(=O)c1cc(Oc2ccc(NC(=O)Nc3ccc(Cl)c(C(F)(F)F)c3)cc2)ccn1 [sorafenib] + O=C(Nc1ccccc1)c1cc([N+](=O)[O-])ccc1Cl [GW9662] (first compound 0.4 µM, partner dose 2 µM) | 92.8%
8 | CS(=O)(=O)CCNCc1ccc(-c2ccc3ncnc(Nc4ccc(OCc5cccc(F)c5)c(Cl)c4)c3c2)o1 [lapatinib] + COc1ccc(-c2ccc3c(N4CCOCC4)nc(N4C[C@@H](C)O[C@@H](C)C4)nc3n2)cc1CO [KU0063794] (first compound 0.8 µM, partner dose 0.02 µM) | 98.5%
9 | CS(=O)(=O)CCNCc1ccc(-c2ccc3ncnc(Nc4ccc(OCc5cccc(F)c5)c(Cl)c4)c3c2)o1 [lapatinib] + O=C1NC(=O)/C(=C/c2ccc(-c3ccc(F)cc3O)o2)S1 [AS252424] (first compound 0.8 µM, partner dose 1 µM) | 98%
10 | CNC(=O)c1cc(Oc2ccc(NC(=O)Nc3ccc(Cl)c(C(F)(F)F)c3)cc2)ccn1 [sorafenib] + COc1cc(N2CCC(N3CCN(C)CC3)CC2)ccc1Nc1ncc(Cl)c(Nc2ccccc2S(=O)(=O)C(C)C)n1 [NVP-TAE684] (first compound 0.4 µM, partner dose 0.08 µM) | 86.3%
11 | CN1CCN(c2ccc3nc(-c4c(N)c5c(F)cccc5[nH]c4=O)[nH]c3c2)CC1 [Dovitinib] + COc1cc2ncnc(Nc3ccc(Oc4ccccc4)cc3)c2cc1OC [SrcI1] (first compound 0.1 µM, partner dose 2 µM) | 99.1%
12 | CN1CCN(c2ccc3nc(-c4c(N)c5c(F)cccc5[nH]c4=O)[nH]c3c2)CC1 [Dovitinib] + CC(C)CCN1c2nc(Nc3cc(F)c(O)c(F)c3)ncc2N(C)C(=O)C1C [BID1870] (first compound 0.1 µM, partner dose 0.2 µM) | 90.1%
13 | CN1CCN(c2ccc3nc(-c4c(N)c5c(F)cccc5[nH]c4=O)[nH]c3c2)CC1 [Dovitinib] + O=C1NC(=O)/C(=C/c2ccc(-c3ccc(F)cc3O)o2)S1 [AS252424] (first compound 0.1 µM, partner dose 1 µM) | 78.7%
14 | C=CCNC1=C2C[C@@H](C)C[C@H](OC)[C@H](O)[C@@H](C)/C=C(\C)[C@H](OC(N)=O)[C@@H](OC)/C=C\C=C(/C)C(=O)NC(=CC1=O)C2=O [Tanespimycin] + CCN(CC)CCCCNc1ncc2cc(-c3cc(OC)cc(OC)c3)c(NC(=O)NC(C)(C)C)nc2n1 [PD173074] (first compound 0.002 µM, partner dose 0.1 µM) | 99.3%
15 | C[C@@H](Oc1cc(-c2cnn(C3CCNCC3)c2)cnc1N)c1c(Cl)ccc(F)c1Cl [Crizotinib] + CCCCCCCCCCCC1=C(O)C(=O)C=C(O)C1=O [Embelin] (first compound 0.2 µM, partner dose 1.2 µM) | 101%
16 | CN1CCN(c2ccc3nc(-c4c(N)c5c(F)cccc5[nH]c4=O)[nH]c3c2)CC1 [Dovitinib] + CCCCCCCCCCCC1=C(O)C(=O)C=C(O)C1=O [Embelin] (first compound 0.1 µM, partner dose 1.2 µM) | 63.8%
17 | CN1CCN(c2ccc3nc(-c4c(N)c5c(F)cccc5[nH]c4=O)[nH]c3c2)CC1 [Dovitinib] + CCN(CC)CCCCNc1ncc2cc(-c3cc(OC)cc(OC)c3)c(NC(=O)NC(C)(C)C)nc2n1 [PD173074] (first compound 0.1 µM, partner dose 0.1 µM) | 72.1%
18 | CS(=O)(=O)CCNCc1ccc(-c2ccc3ncnc(Nc4ccc(OCc5cccc(F)c5)c(Cl)c4)c3c2)o1 [lapatinib] + COC(=O)c1sccc1S(=O)(=O)Nc1ccc(Nc2ccccc2)cc1OC [GSK0660] (first compound 0.8 µM, partner dose 1 µM) | 95.7%
19 | C=CCNC1=C2C[C@@H](C)C[C@H](OC)[C@H](O)[C@@H](C)/C=C(\C)[C@H](OC(N)=O)[C@@H](OC)/C=C\C=C(/C)C(=O)NC(=CC1=O)C2=O [Tanespimycin] + COC(=O)c1sccc1S(=O)(=O)Nc1ccc(Nc2ccccc2)cc1OC [GSK0660] (first compound 0.002 µM, partner dose 1 µM) | 93.3%
20 | C[C@@H](Oc1cc(-c2cnn(C3CCNCC3)c2)cnc1N)c1c(Cl)ccc(F)c1Cl [Crizotinib] + O=S(=O)(c1ccccc1)N(CC(F)(F)F)c1ccc(C(O)(C(F)(F)F)C(F)(F)F)cc1 [T0901317] (first compound 0.2 µM, partner dose 1.4 µM) | 95.5%
21 | C=CCNC1=C2C[C@@H](C)C[C@H](OC)[C@H](O)[C@@H](C)/C=C(\C)[C@H](OC(N)=O)[C@@H](OC)/C=C\C=C(/C)C(=O)NC(=CC1=O)C2=O [Tanespimycin] + CCCCCCCCCCCC1=C(O)C(=O)C=C(O)C1=O [Embelin] (first compound 0.002 µM, partner dose 1.2 µM) | 93.4%
22 | CNC(=O)c1cc(Oc2ccc(NC(=O)Nc3ccc(Cl)c(C(F)(F)F)c3)cc2)ccn1 [sorafenib] + COC(=O)c1sccc1S(=O)(=O)Nc1ccc(Nc2ccccc2)cc1OC [GSK0660] (first compound 0.4 µM, partner dose 1 µM) | 78.2%
23 | CNC(=O)c1cc(Oc2ccc(NC(=O)Nc3ccc(Cl)c(C(F)(F)F)c3)cc2)ccn1 [sorafenib] + CCN(CC)CCCCNc1ncc2cc(-c3cc(OC)cc(OC)c3)c(NC(=O)NC(C)(C)C)nc2n1 [PD173074] (first compound 0.4 µM, partner dose 0.1 µM) | 108%
24 | CN1CCN(c2ccc3nc(-c4c(N)c5c(F)cccc5[nH]c4=O)[nH]c3c2)CC1 [Dovitinib] + O=c1cc(-c2cccc3c2Sc2ccccc2S3)oc(N2CCOCC2)c1 [KU55933] (first compound 0.1 µM, partner dose 1 µM) | 79.8%
25 | C=CCNC1=C2C[C@@H](C)C[C@H](OC)[C@H](O)[C@@H](C)/C=C(\C)[C@H](OC(N)=O)[C@@H](OC)/C=C\C=C(/C)C(=O)NC(=CC1=O)C2=O [Tanespimycin] + O=C1NC(=O)/C(=C/c2ccc(-c3ccc(F)cc3O)o2)S1 [AS252424] (first compound 0.002 µM, partner dose 1 µM) | 75.6%
26 | C=CCNC1=C2C[C@@H](C)C[C@H](OC)[C@H](O)[C@@H](C)/C=C(\C)[C@H](OC(N)=O)[C@@H](OC)/C=C\C=C(/C)C(=O)NC(=CC1=O)C2=O [Tanespimycin] + O=C(O)C(=O)Nc1sc2c(c1C(=O)O)CCNC2 [TCS401] (first compound 0.002 µM, partner dose 1.66667 µM) | 87.3%
27 | C=CCNC1=C2C[C@@H](C)C[C@H](OC)[C@H](O)[C@@H](C)/C=C(\C)[C@H](OC(N)=O)[C@@H](OC)/C=C\C=C(/C)C(=O)NC(=CC1=O)C2=O [Tanespimycin] + COc1ccc2c(c1)CCC1C2CCC2(C)C(NCCCCCCN3C(=O)C=CC3=O)CCC12 [U73122] (first compound 0.002 µM, partner dose 0.4 µM) | 95.1%
28 | CNC(=O)c1cc(Oc2ccc(NC(=O)Nc3ccc(Cl)c(C(F)(F)F)c3)cc2)ccn1 [sorafenib] + N#Cc1c(O)c2c(-c3ccc(-c4ccccc4O)cc3)csc2[nH]c1=O [A769662] (first compound 0.4 µM, partner dose 2 µM) | 107%
